The campaign covered roughly 52,000 compounds. About 4,300 (8.3%) were called active. No stated cut-off is given here; in the data, active means survival mostly below about 52% (no sharp cut-off); inactive means mostly above about 56%. This is one part of the list.

Our source for the survival values is PubChem BioAssay AID463173 (ICCB-Longwood Screening Facility, Harvard Medical School, 2010).

The experiment concerns DeltatarO mutant. The experiment in a line: S. aureus survival, RN4220 and DeltatarO strains – OD600, teichoic acid synthesis inhibitors, primary screen (AID 463173). The following applies: S. aureus RN4220 wild type/DeltatarO growth, OD600, 18 h, active compounds read low, screened at 18.75 µg/mL (by protocol).
Consider `O=C(CC(c1ccccc1)c1ccccc1)N1CCN(Cc2ccc3c(c2)OCO3)CC1`, for which the survival was inactive: 67%. Under `COc1ccccc1C(=O)NCC(c1cccnc1)N1CCc2ccccc2C1` (stereo not drawn) stands inactive: 68%; under `CCCOC(=O)c1c(NC(=O)C(C)Sc2nc(-c3ccccc3)cc(C(F)(F)F)n2)sc(C(=O)N(C)C)c1C` (stereo not drawn), inactive: 132%. As for `Cc1cccc(N2CCN(C(=O)CN3C(=O)CSc4c3c(C)nn4-c3ccccc3)CC2)c1C`, the survival was inactive: 83%. For `CC(C)(C)CC(=O)NCC(c1ccc2c(c1)OCO2)N1CCN(c2ccccc2)CC1` (stereo not drawn), the survival was inactive: 77%. On to `O=C1C(c2ccc(F)cc2)N(CCc2ccc(Cl)cc2)C(=O)CN1C1CCCCCC1` (stereo not drawn), for which the survival was inactive: 67%. In the case of `CCC(C)NC(=O)Cn1c(=O)n(CCCCCC(=O)NCc2ccccc2Cl)c(=O)c2sccc21` (stereo not drawn), the survival was inactive: 127%. Consider `CC(=O)c1ccc(NC(=O)c2cc(-c3ccc(C)s3)nc3ccccc23)cc1`, for which the survival was inactive: 65%.

Regarding `O=C(NCc1cccc(Br)c1)c1cnn(-c2ccc(F)cc2)c1-n1cccc1`, the survival was inactive: 89%. Take `CCOC(=O)Cn1cnc2sc(C(=O)OCC)c(C)c2c1=O`: the survival was inactive: 95%. For the molecule `COc1cc(NC(=O)N2c3ccccc3Sc3ccccc32)cc(OC)c1`, the survival is inactive: 62%. `O=C(CSc1nccn1-c1ccc(Cl)cc1)Nc1ccc(Cl)c(Cl)c1`: the survival was inactive: 90%. The result for `CCOC(=O)N1CCc2c(sc3c2c(=O)n(CCc2ccccc2)c(=O)n3CC(=O)Nc2ccc(C)cc2)C1` reads inactive: 74%; that for `Cc1ccc(S(=O)(=O)n2nc(-c3ccccc3)nc2NCc2ccc(Cl)cc2)cc1`, inactive: 83%; that for `COc1ccc(C2C(=O)N(C3CCCCCC3)CC(=O)N2Cc2ccc(C)cc2)cc1` (stereo not drawn), inactive: 60%. Regarding `O=C(CSc1nc2c([nH]c3ccccc32)c(=O)n1-c1ccccc1)N1CCc2ccccc21`, the survival is inactive: 101%.

For `S=c1[nH]nc(CCCOc2ccc(Cl)cc2Cl)o1`, the survival was inactive: 54%. The result for `CN(C)CCNC(=O)C1CCN(Cc2cc3ccccc3n2Cc2ccccc2)CC1` reads inactive: 93%; that for `CCOc1ccc(S(=O)(=O)c2c(C(=O)c3ccc(CC)cc3)cnc3ccc(C)cc23)cc1`, inactive: 74%; that for `COc1cc(NC(=O)CCc2c(C)nn(-c3ccc4nnc(C)n4n3)c2C)cc(OC)c1OC`, inactive: 80%. Take `CCOc1ccc(N2CC(NC(=O)c3cccs3)CC2=O)cc1` (stereo not drawn): the survival was inactive: 76%. In the case of `CCCN(CCC)CCCNC(=O)c1cc2c(-c3ccc(OC)c(OC)c3)nn(C)c2s1`, the survival is inactive: 160%.

With `O=C1S/C(=C\c2ccccc2)C(=O)N1CN1CCOCC1`, the survival is inactive: 89%.

Regarding `Cc1ccc(NC(=O)CN2CCN(S(=O)(=O)c3ccc(C(C)C)cc3)CC2)cc1F`, the survival was inactive: 54%. The result for `OC1(c2cccc(C(F)(F)F)c2)CCN(c2ccc(-c3ccccc3)nn2)CC1` reads inactive: 82%; that for `COc1ccc(Nc2nc(N)nc(N)c2S(=O)(=O)c2ccccc2)cc1`, inactive: 78%; that for `Cc1cn(C)c(CC(=O)N2CCN(c3cccc(Cl)c3)CC2)c1C(=O)O`, inactive: 88%. Regarding `Cc1ccc(-n2nc(CO)c(C(=O)NC(C)CCCc3ccccc3)n2)cc1` (stereo not drawn), the survival was inactive: 86%. In the case of `CCc1nn2c(=O)cc(COC(=O)CNC(=O)COc3ccc(C)cc3)nc2s1`, the survival was inactive: 116%. As for `COc1ccc(NC(=O)c2c(NCc3sccc3C)sc3c2CCCC3)c(OC)c1`, the survival is inactive: 75%. With `CCC(=O)N1CCc2cc(S(=O)(=O)CCC(=O)N3CCN(c4ccc(Cl)cc4)CC3)ccc21`, the survival was inactive: 55%.

Regarding `CC(C)CC(NS(=O)(=O)c1ccc2c(c1)oc(=O)n2C)C(=O)NCc1ccccc1Cl` (stereo not drawn), the survival is inactive: 84%.

In the case of `CCCn1c(=O)sc2cc(NC(=O)c3ccc(OC)c(Br)c3)ccc21`, the survival was inactive: 70%. With `CCCOc1ccc(CN(C(=O)Cc2coc3ccc(CC)cc23)C2CCS(=O)(=O)C2)cc1` (stereo not drawn), the survival is inactive: 71%. Take `COc1cc(Cl)c(NC(=O)CCS(=O)(=O)c2ccc3c(c2)NC(=O)CO3)c(OC)c1`: the survival is inactive: 90%.

As to `CC(C)(C)OC(=O)N1CCC(c2c(C(=O)NC3CCN(Cc4ccccc4)CC3)cnn2-c2ccc(F)cc2F)CC1`, the survival is active: -2%. For `COc1ccc(CCNC(=O)c2ccc3c(c2)CCN3S(=O)(=O)c2ccc(C)cc2)cc1`, the survival is active: 43%. The result for `COc1ccc(-c2cc(C(=O)NCCc3ccccc3)c3c(-c4ccccc4)[nH]nc3n2)cc1OC` reads inactive: 167%; that for `Cc1cc(C)nc(NNC(=O)c2ccccc2)n1`, inactive: 107%. Take `Cc1ccc(NC(=O)C2CCCN(S(=O)(=O)c3ccc4c(c3)oc(=O)n4C)C2)cc1Cl` (stereo not drawn): the survival is inactive: 76%. Under `O=C1CC(C(=O)Nc2ccccc2)C2(CCCC2)O1` (stereo not drawn) stands inactive: 72%; under `CCOc1ccc(NC(=O)C(=O)c2cc(C)n(-c3cc(C)cc(C)c3)c2C)cc1`, inactive: 114%; under `Cc1cccc(NC(=O)c2ccc3nc(C(C)C)oc3c2)c1C`, inactive: 94%. Turning to `COc1cccc(NC(=O)CSC2=Nc3ccccc3C3=NC(CCC(=O)NCCc4ccccc4)C(=O)N23)c1` (stereo not drawn), the survival was inactive: 58%. Consider `Cc1ccc(-n2cc(C(=O)Oc3cccc(C)c3)c3ccccc3c2=O)cc1`, for which the survival is inactive: 69%. The result for `CCCN(CCC)C(=O)Cn1c(=O)n(-c2ccc(CC)cc2)c(=O)c2ccc(C(=O)NCCc3ccccc3)cc21` reads inactive: 90%; that for `CCOC(=O)c1ccc(Nc2nc3ccc(C(=O)c4ccccc4)cc3n3c(C)nnc23)cc1`, inactive: 109%. As for `O=C(Nc1ccc(F)cc1C(F)(F)F)C1CCN(c2ncccn2)CC1`, the survival is inactive: 76%. The result for `COc1ccc(S(=O)(=O)c2cn(C)c3ccc(C)cc3c2=O)cc1` reads inactive: 90%. For the molecule `Cc1cccc(NC(=O)c2c(C)cc(C)nc2SCC(=O)c2ccccc2)c1`, the survival is active: 40%. In the case of `Cc1cc(C)c2oc(C(=O)Nc3ccc(S(=O)(=O)N4CCCCCC4)cc3)cc(=O)c2c1`, the survival is inactive: 62%. `Cc1cccc(NC(=O)COC(=O)CCCC2=NS(=O)(=O)c3ccccc3N2)c1`: the survival is active: -2%.

As to `CCOc1ccc(S(=O)(=O)Nc2cccc(-c3ccc(OCC)nn3)c2)cc1`, the survival was inactive: 99%. On to `CC(C)(C)C(=O)NC1CCNCC1`, for which the survival is inactive: 105%. Under `O=C1C2CCCC1C(c1ccc3c(c1)OCO3)NC2c1ccc2c(c1)OCO2` (stereo not drawn) stands inactive: 58%; under `COC(=O)CNc1cn[nH]c(=O)n1`, inactive: 92%. As to `Cc1ccc(/C=C/c2onc(C)c2S(=O)(=O)N2CCC(C(=O)Nc3cc(C)ccc3C)CC2)cc1`, the survival is inactive: 78%. Turning to `COc1ccccc1CCNC(=O)C(=O)NCC(c1cccs1)S(=O)(=O)c1cccs1` (stereo not drawn), the survival was inactive: 67%. Turning to `COc1cccc(-c2noc(C3CC(=O)N(c4ccc(F)cc4)C3)n2)c1OC` (stereo not drawn), the survival was inactive: 92%. Regarding `COc1ccccc1CNC(=O)c1cc2sccc2n1Cc1ccc(Cl)cc1`, the survival was inactive: 78%. Regarding `Cc1ccccc1NC(=O)CSc1nc2ccc(NC(=O)c3cccs3)cc2s1`, the survival was inactive: 91%. As to `CCc1ccc(NC(=O)CCn2c(=O)c3cccn3c3ccccc32)cc1`, the survival was inactive: 48%. With `COc1ccc(NC(=O)CSc2ccc3nc(-c4ccccc4)cn3n2)c(OC)c1`, the survival is inactive: 70%. Regarding `Cc1ccc(NC(=O)c2ccc3[nH]c(C)cc(=O)c3c2)cc1`, the survival is inactive: 75%. `CSc1cccc(NC(=O)c2cccc(N3CCCS3(=O)=O)c2)c1`: the survival is inactive: 115%. For `CCOc1ccc(OCC)c(Nc2ccc3cc(S(=O)(=O)N4CCCC4)ccc3n2)c1`, the survival was inactive: 87%.

Regarding `CCC1CN(C(=O)N2CCC(C(=O)NCc3cccc(OC)c3OC)CC2)c2cc(C)ccc2O1` (stereo not drawn), the survival was inactive: 78%. The result for `CCC1=Nc2cc(C(=O)NC3CCC(C)CC3)ccc2Sc2ccc(C)cc21` (stereo not drawn) reads active: 39%. On to `COc1ccccc1NC(=O)c1sc2nc(C)c(C(=O)Nc3ccc(C)cc3C)c(-c3ccco3)c2c1N`, for which the survival is inactive: 61%. As to `CC(C)c1ccc(NC(=O)c2ccc(F)c(S(=O)(=O)N3CCc4ccccc43)c2)cc1`, the survival is inactive: 83%.

For the molecule `CCC(C)NC(=O)CSc1nc2n[nH]c(C)c2c(=N)n1-c1cc(Cl)ccc1C` (stereo not drawn), the survival was inactive: 82%. Under `O=C(C1CCCN(S(=O)(=O)c2cccc3nsnc23)C1)N1CCN(c2ccccc2F)CC1` (stereo not drawn) stands inactive: 75%; under `O=C(O)Cn1cnc2ccccc2c1=O`, inactive: 109%. In the case of `COc1ccc(NC(=O)CCCN2C(=O)C(c3ccccc3)Oc3cccnc32)c(OC)c1` (stereo not drawn), the survival was inactive: 81%. As for `CCc1ccc2oc(C(=O)Nc3cccc(Cl)c3C)cc(=O)c2c1`, the survival was inactive: 47%. Take `CCCNC(=O)CSc1nnc(-c2cccnc2)n1C1CCCCC1`: the survival was inactive: 104%.

`CC(C)CCN(Cc1ccco1)C(=O)c1cc2c(s1)-c1ccccc1OC2`: the survival was active: -4%. Regarding `CC1Cc2ccccc2N1C(=O)c1cc2n(n1)C(C(F)(F)F)CC(c1ccco1)N2` (stereo not drawn), the survival was inactive: 99%. As to `COc1cc(-c2nnc(SCCOc3ccc(Cl)cc3)o2)cc(OC)c1OC`, the survival was inactive: 68%. Consider `O=C(COc1ccccc1)OCc1cc(=O)n2nc(C3CC3)sc2n1`, for which the survival is inactive: 77%.

As to `COc1ccccc1N1CCN(C(=O)C2CCN(S(=O)(=O)Cc3ccccc3)CC2)CC1`, the survival is inactive: 61%.

In the case of `CCC(Cc1ccccc1)NC(=O)CN1C(=O)COc2ccc(S(=O)(=O)N3CCCCCC3)cc21` (stereo not drawn), the survival was inactive: 113%. Turning to `Cc1cc2c(cc1NC(=O)c1ccccc1C)n(C)c(=O)c(=O)n2C`, the survival was inactive: 81%. For the molecule `COc1ccc(CCNC(=O)CCCn2c(=O)c3cccn3c3ccccc32)cc1OC`, the survival was inactive: 61%. `CCOCCCNC(=O)C1CCN(C(=O)c2cc3sccc3n2C)CC1`: the survival was inactive: 82%.

As for `CC(=O)N1CCc2c(sc3c2c(=O)n(Cc2ccccc2)c(=O)n3Cc2ccc(C)cc2)C1`, the survival was inactive: 106%. As for `COC(=O)c1ccc(Cn2cnc3nc4c(cc3c2=O)CCCC4)cc1`, the survival is inactive: 89%.

In the case of `CC(=O)c1ccc(N2CCN(C(=O)C3CCN(S(=O)(=O)c4c(C)noc4/C=C/c4ccc(C)cc4)CC3)CC2)cc1`, the survival is inactive: 79%.
